49 molecules from the supplement of paper PMC10600219 can be followed below.

Where a name gives a salt, the structure may show the parent alone. Over roughly 2,800 compounds, “cell viability relative to vehicle” has its median near 0.98; the lowest 2% begin near 0.45. This is one part of the list.

This test has as its system NCI-H2228 alectinib-DTP. The test is described as follows: cell viability relative to vehicle (fraction of vehicle); NCI-H2228 is an ALK-positive lung cancer line and DTP means drug-tolerant persister; higher = less growth inhibition. To be noted: 100 nM; treatment time 6 days. In a few lines: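 NCI-H2228 parental cells and drug-tolerant persister cells were plated in 384-well plates; the persisters had been generated with 1000 nM of a targeted drug over 13 days. One day later, the 3114-agent TargetMol anti-cancer compound library was added at 100 nM, with DMSO serving as vehicle. ATP was measured 6 days after that using the CellTiter-Glo 3D Cell Viability Assay. Values are cell viability expressed relative to vehicle-treated cells.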
Molecule `CCNc1nc(Nc2cc(F)c(C(=O)N3CCOCC3)cc2OC)ncc1C(F)(F)F` had a cell viability of 0.962.

Take `CC1(C)O[C@@H]2[C@@H](CO[C@@]3(COS(N)(=O)=O)OC(C)(C)O[C@@H]23)O1` [Topiramate]: the cell viability came out at 1.06.

`C=C(C)[C@@H]1CC[C@]2(C)[C@H](CC=C3[C@@H]4[C@@H](C)[C@H](C)CC[C@]4(C)CC[C@]32C)[C@@]1(C)CCC(=O)O` [Roburic acid] returned a cell viability of 0.979.

In the case of `O=C1Nc2ccc(I)cc2/C1=C/c1cc(Br)c(O)c(Br)c1`, the cell viability came out at 1.09.

`N#Cc1ccc(COc2ccc(-c3cccc4nc(NC(=O)C5CC5)nn34)cc2)cn1` [GLPG0634 analogue] had a cell viability of 0.918.

Molecule `CCCCCCOc1cc(C)c(O)c(C)c1C` registered a cell viability of 1.14.

The molecule `Nc1cccc(-c2nc(N3CCOCC3)c3oc4ncccc4c3n2)c1` [PIK-inhibitors] gave a cell viability of 1.

`Cn1nnc(-c2ccc(-c3ccc(N4C[C@H](CO)OC4=O)cc3F)cn2)n1` [Torezolid] returned a cell viability of 0.898.

Turning to `NS(=O)(=O)c1ccc(NC(=O)Nc2ccc(F)cc2)cc1`, the cell viability was found to be 0.976.

Molecule `S=c1[nH]cnc2nc[nH]c12` [6-Mercaptopurine monohydrate] gave a cell viability of 0.594.

The molecule `S=c1[nH]cnc2nc[nH]c12` [Mercaptopurine] showed a cell viability of 1.

Molecule `COc1cc2c(cc1OC)[C@@H]1C(=O)c3ccc4c(c3O[C@@H]1CO2)C=CC(C)(C)O4` [Deguelin] yielded a cell viability of 1.08.

As to `CCCCCCCCNC(C)C(O)c1ccc(SC(C)C)cc1` (centres undefined) [Suloctidil], the cell viability was 1.

As for `C=C1CCC[C@]2(C)C[C@@H]3OC(=O)C(C)=C3C[C@@H]12` [Atractylenolide II], the cell viability worked out at 0.899.

`O=C(O)c1cc(NCc2cc(O)ccc2O)ccc1O` [lavendustin C] gave a cell viability of 0.95.

In turn, `C=C(C)[C@@H]1CC[C@]2(C)CC[C@]3(C)[C@H](CC[C@@H]4[C@@]5(C)CC[C@H](O)C(C)(C)[C@@H]5CC[C@]43C)[C@@H]12` [Lupeol] returned a cell viability of 0.982.

`O=C(NCCCNc1nc(Nc2cccc(NC(=O)N3CCCC3)c2)ncc1I)c1cccs1` showed a cell viability of 0.96.

Regarding `Cc1cccc(-c2[nH]ncc2-c2ccc3ncccc3n2)n1`, the cell viability came to 1.18.

In turn, `Cc1ccccc1C(=O)Nc1ccc(C(=O)N2CCCC(N(C)C)c3ccccc32)cc1` (centres undefined) [Mozavaptan] yielded a cell viability of 1.1.

`CCNC(=O)c1cc2c(-c3cc(OCCN4CCCC4)c(Cl)cc3Cl)nc(N)nc2s1` had a cell viability of 1.06.

For `O=C(NNc1ccccc1)c1ccncc1` [PluriSln 1], the cell viability came out at 0.933.

Regarding `CC(C)n1cnc2c(NCCc3ccc(O)cc3)nc(-c3csc4ccccc34)nc21` [StemRegenin 1], the cell viability turned out to be 1.01.

With `CC(=O)O[C@@H]1CC[C@@]2(C)[C@@H](CC[C@]3(C)[C@@H]2C(=O)C=C2[C@@H]4[C@@H](C)[C@H](C)CC[C@]4(C)CC[C@]23C)[C@@]1(C)C(=O)O`, the cell viability turned out to be 1.06.

On to `O=C1OC(=O)[C@H]2[C@@H]1[C@@H]1CC[C@H]2O1` [Norcantharidin], for which the cell viability is 0.988.

The molecule `c1cc(CN2CCCNCCNCCCNCC2)ccc1CN1CCCNCCNCCCNCC1` [Plerixafor] came in with a cell viability of 0.843.

For the molecule `O=c1[nH]c(=O)n([C@H]2C[C@H](O)[C@@H](CO)O2)cc1C(F)(F)F` [Trifluridine], the cell viability was 0.929.

`COC(=O)c1ccc(O)c(O)c1` [Methyl protocatechuate] had a cell viability of 0.879.

The molecule `Cc1cc(C#N)cc(C)c1Oc1nc(Nc2ccc(C#N)cc2)nc(N)c1Br` [Etravirine] yielded a cell viability of 0.997.

With `Cc1nnc(SCC2=C(C(=O)O)N3C(=O)[C@@H](NC(=O)Cn4cnnn4)[C@H]3SC2)s1` [Cefazolin sodium salt], the cell viability was determined as 0.908.

The molecule `CCCC(=O)O[C@]1(C(=O)CO)CC[C@H]2[C@@H]3CCC4=CC(=O)CC[C@]4(C)[C@H]3[C@@H](O)C[C@@]21C` [Hydrocortisone butyrate] yielded a cell viability of 0.786.

For the molecule `COc1ccc2c3c1O[C@H]1C[C@@H](O)C=C[C@@]31CCN(C)C2` [Galanthamine HBr], the cell viability was 0.925.

For the molecule `CO[C@H]1C[C@@H]2CC[C@@H](C)[C@@](O)(O2)C(=O)C(=O)N2CCCC[C@H]2C(=O)O[C@H]([C@H](C)C[C@@H]2CC[C@H](n3cnnn3)[C@H](OC)C2)CC(=O)[C@H](C)/C=C(\C)[C@@H](O)[C@@H](OC)C(=O)[C@H](C)C[C@H](C)/C=C/C=C/C=C/1C` [Zotarolimus], the cell viability turned out to be 0.754.

`CCCC(=O)Nc1cccc(NC(=O)c2ccccc2Br)c1`: the cell viability was 1.12.

On to `C#CC1(O)CC[C@H]2[C@@H]3CCC4=CC(=O)CC[C@@H]4[C@H]3CC[C@@]21CC` (some centres undefined) [Norgestrel], for which the cell viability came to 1.2.

The molecule `O=C(c1ccc(Cl)cc1Cl)n1nnc2ccccc21` gave a cell viability of 1.03.

`N=C(NOCC(O)CN1CCCCC1)c1cccnc1` (centres undefined) yielded a cell viability of 1.02.

With `COc1cc(-c2cc(-c3cccc(O)c3)cnc2N)cc(OC)c1OC`, the cell viability was found to be 1.01.

On to `Nc1[nH]c(=O)nc2c1ncn2[C@@H]1O[C@H](CO)[C@@H](O)[C@H]1O`, for which the cell viability is 1.21.

`O=C(O)c1ccc(O)c2ncccc12` had a cell viability of 0.999.

The molecule `COc1cc2ncnc(Nc3ccc(O)c(Br)c3)c2cc1OC` came in with a cell viability of 1.02.

`CN(C)Cc1ccc(-c2cnn3c(-c4cccc(NC(=O)c5cccc(C(F)(F)F)c5)c4)ccnc23)cc1` came in with a cell viability of 0.841.

In turn, `Oc1cc(O)cc(/C=C/c2ccc(O)c(O)c2)c1` [Piceatannol] returned a cell viability of 0.986.

`CCN1CCN(c2ccc(Nc3cc(N(C)C(=O)Nc4c(Cl)c(OC)cc(OC)c4Cl)ncn3)cc2)CC1` [Infigratinib] gave a cell viability of 0.781.

Turning to `Nc1nc(=O)[nH]cc1F` [Fluorocytosine], the cell viability turned out to be 0.918.

`CC[C@@]1(O)C(=O)OCc2c1cc1n(c2=O)Cc2cc3c(CN(C)C)c(O)ccc3nc2-1` [Topotecan hydrochloride]: the cell viability came out at 0.245.

Molecule `Cc1cc(Nc2cc(CN3CCOCC3)c3nc(C)c(Cc4ccc(Cl)cc4F)n3n2)n[nH]1` [Gandotinib] displayed a cell viability of 0.982.

The molecule `CCOC(=O)N[C@@H]1CC[C@@H]2[C@@H](C1)C[C@H]1C(=O)O[C@H](C)[C@H]1[C@H]2/C=C/c1ccc(-c2cccc(F)c2)cn1` [Vorapaxar] had a cell viability of 0.98.

`CCOC(=O)N[C@@H]1CC[C@@H]2[C@@H](C1)C[C@H]1C(=O)O[C@H](C)[C@H]1[C@H]2/C=C/c1ccc(-c2cccc(F)c2)cn1` [Vorapaxar sulfate] yielded a cell viability of 1.03.

As to `Nc1nnc(-c2cccc(Cl)c2Cl)c(N)n1` [Lamotrigine], the cell viability was 1.06.
